# Data as given in US20250223369A1 (WISTAR INSTITUTE OF ANATOMY AND BIOLOGY, published 2025).
# B1: DDAP-NKCE (FSHR×Siglec 7 bispecific NK cell engager) (bispecific antibody)
# scFv: [not shown - about 100 residues]FGQGTKVEIKGGGGSGGGGSGGGGSQVQLVESGGGVVQPGRSLRLSCAASGFTFRTDAMHWVRQAPGKGLEWVAVIWYDGSIKYHADSVKGRFTISRDNSKNTLYLEMNSLRAEDTAVYYCARDRSNSLDHWGQGILVSVSSGGGGSEVQLVESGGGLVQPGGSLRLSCSFSGFSLSTSGMGVGWIRQAPGKGLEWVAHIWWDDDKRYNPALKSRFTLSVDRSKNTLYLQMNSLRAEDTATYYCVQINYGNYRFDNWGHGTLVTVSSGGGGSGGGGSGGGGSDIQMTQSPSSLSASVGDRVTISCRASESVDNYGISFLNWFQQKPGKAPKLLIYAASNQRSGVPSRFSGSGSGTDFTLTISSLQPEDFATYFCQQSKEVPWTFGQGTKVEIKR
# notes: One chain: scFv of DB-S7-2 followed by scFv of the FSHR antibody (DDAP / D2AP11), GS linkers; Expressed in Expi293F cells as a ~55 KDa molecule; also called DB7.2×D2AP11 NKCE; DB7.2×D2AP11
# Target: T1, human Siglec 7 on cells (human, UniProt Q9Y286 19-467)
# T1 construct: whole, on cells; also called HEK293T-Siglec7 cells
# Assay: flow cytometry on Siglec 7 overexpressing HEK293T cells
# T1 sequence (Q9Y286 19-467): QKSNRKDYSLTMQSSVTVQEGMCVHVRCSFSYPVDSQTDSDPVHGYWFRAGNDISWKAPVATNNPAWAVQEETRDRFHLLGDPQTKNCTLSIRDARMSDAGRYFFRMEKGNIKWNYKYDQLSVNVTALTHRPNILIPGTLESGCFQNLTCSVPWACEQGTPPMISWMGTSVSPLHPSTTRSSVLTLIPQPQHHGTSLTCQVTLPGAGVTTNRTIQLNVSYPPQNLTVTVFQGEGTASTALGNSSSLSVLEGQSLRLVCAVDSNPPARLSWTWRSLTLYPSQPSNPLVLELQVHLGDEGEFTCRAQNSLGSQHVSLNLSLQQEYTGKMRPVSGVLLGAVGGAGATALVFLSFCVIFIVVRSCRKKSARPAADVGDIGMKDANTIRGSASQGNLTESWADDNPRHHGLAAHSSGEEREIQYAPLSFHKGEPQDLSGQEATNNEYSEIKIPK
binder,measurement,value
B1,binding result,binds
